# According to publication PMC4336329 (PLoS ONE, 2015):
# The whole screen tested about 310,000 compounds, of which about 2,200 (0.71%) showed an effect of 50% or more. Effects have a minus sign here. The list shows a part of the results.
# Target: human ether-à-go-go-related gene (hERG) potassium channel (human, UniProt Q12809)
# Test: primary screen, population patch clamp on CHO cells stably expressing hERG
# Sequence of human ether-à-go-go-related gene (hERG) potassium channel (Q12809 whole entry, looked up): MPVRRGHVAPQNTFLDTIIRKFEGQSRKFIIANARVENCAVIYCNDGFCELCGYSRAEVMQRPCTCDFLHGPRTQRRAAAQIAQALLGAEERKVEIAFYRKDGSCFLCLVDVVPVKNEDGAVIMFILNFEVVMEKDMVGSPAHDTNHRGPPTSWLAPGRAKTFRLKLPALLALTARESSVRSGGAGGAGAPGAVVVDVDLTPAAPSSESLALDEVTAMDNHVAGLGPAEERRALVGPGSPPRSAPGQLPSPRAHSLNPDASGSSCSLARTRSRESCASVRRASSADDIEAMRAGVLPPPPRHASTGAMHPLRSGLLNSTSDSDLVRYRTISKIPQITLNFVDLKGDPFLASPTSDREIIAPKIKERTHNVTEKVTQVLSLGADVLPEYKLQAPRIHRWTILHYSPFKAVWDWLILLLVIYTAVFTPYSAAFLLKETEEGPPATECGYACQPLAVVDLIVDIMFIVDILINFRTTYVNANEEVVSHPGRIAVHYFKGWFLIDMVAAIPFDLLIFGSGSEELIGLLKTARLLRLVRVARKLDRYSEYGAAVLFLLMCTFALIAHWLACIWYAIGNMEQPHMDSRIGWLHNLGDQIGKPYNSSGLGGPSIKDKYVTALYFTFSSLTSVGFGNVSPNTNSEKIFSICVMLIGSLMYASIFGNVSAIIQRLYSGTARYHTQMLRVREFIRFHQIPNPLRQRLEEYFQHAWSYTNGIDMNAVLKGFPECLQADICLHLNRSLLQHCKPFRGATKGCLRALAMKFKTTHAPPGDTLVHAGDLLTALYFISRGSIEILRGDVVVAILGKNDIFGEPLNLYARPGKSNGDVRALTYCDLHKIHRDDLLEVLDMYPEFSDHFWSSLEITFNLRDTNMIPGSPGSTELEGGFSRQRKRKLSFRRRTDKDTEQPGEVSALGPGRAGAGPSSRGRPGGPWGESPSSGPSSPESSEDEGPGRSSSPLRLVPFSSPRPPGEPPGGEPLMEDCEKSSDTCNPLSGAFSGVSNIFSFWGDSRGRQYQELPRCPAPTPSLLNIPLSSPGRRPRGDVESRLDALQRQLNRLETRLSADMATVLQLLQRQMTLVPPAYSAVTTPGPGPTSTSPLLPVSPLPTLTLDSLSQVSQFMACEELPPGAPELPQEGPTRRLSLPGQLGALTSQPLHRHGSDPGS
row,SMILES,"hERG current change (%, negative = inhibition) at 1uM [%]"
1,O=C(NCc1cccs1)C1CCCCC1,-5.85
2,Cc1cc(Br)ccc1SCC(=O)OC/C(O)=C(\C#N)c1nc2ccccc2[nH]1,-1.2
3,CC(NC(=O)CN(Cc1ccccc1)S(=O)(=O)c1ccccc1)c1cccnc1 (stereo not drawn),5.56
4,CCn1ncc(S(=O)(=O)NCc2ccccc2Cl)c1C,4.87
5,CC(C)Oc1ccc(C(=O)Nc2nnc(C3=COCCO3)o2)cc1,-6.32
6,CCOC(=O)c1c(C)[nH]c(C)c1S(=O)(=O)NCCCN1CCOCC1,9.16
7,CCCc1cc(=O)n2[nH]c(-c3ccco3)nc2n1,11.3
8,CC(C)C(=O)Nc1cccc(C(=O)NCc2ccc3c(c2)OCO3)c1,-3.7
9,O=C(CN1C(=O)NC2(CCc3ccccc32)C1=O)Nc1ccc(Br)cc1F (stereo not drawn),10.6
10,COCC(C)OC(=O)c1c(N)n(CC(C)C)c2nc3ccccc3nc12 (stereo not drawn),-46.6
11,CC1CCCN(C(=S)NC2CCCC2)C1 (stereo not drawn),16.8
12,COCc1ccc(-c2ccc3c(c2)c(C#Cc2ccsc2)c(-c2cc(OC)cc(OC)c2)n3C)cc1,10.1
13,CC1(c2ccccc2)NC(=O)N(CC(=O)Nc2ccc(N3CCOCC3)cc2N2CCOCC2)C1=O (stereo not drawn),15.4
14,CN1N=C(C(=O)N2CCN(c3ccc([N+](=O)[O-])cc3)CC2)CCC1=O,-42.8
15,CCOc1cc(/C=C2/C(=N)N3C(=NC2=O)SN=C3S(=O)(=O)C(C)C)ccc1OC(=O)c1ccco1,14.7
16,COC(CN(C)C(=O)c1cn(C)c2ccc(S(=O)(=O)N(C)C3CCCCC3)cc2c1=O)OC,14.5
17,Oc1ccccc1-c1cc(-c2ccccc2)no1,12.6
18,CC(=O)c1c(C)[nH]c(C(=O)CSc2ccc(F)cc2)c1C,9.59
19,CCOC(=O)CN1C(=O)c2ccccc2C1=O,12.3
20,COc1ccc(N2CCN(S(=O)(=O)c3ccc(Cl)c(C(F)(F)F)c3)CC2)cc1,8.26
21,CCOC(=O)c1csc(NNC=O)n1,3.17
22,Cc1ccccc1C(=O)Nc1c2c(nn1C(C)(C)C)CS(=O)(=O)C2,2.65
23,O=C(COc1cc2oc(=O)c3c(c2cc1Cl)CCC3)NCCCN1CCOCC1,12.6

row,SMILES,"hERG current change (%, negative = inhibition) at 1uM [%]"
1,O=C(COc1cccnc1[N+](=O)[O-])NCc1ccc2c(c1)OCO2,1.17
2,CCCCC(=O)Nc1ccc(NC(=O)c2ccco2)cn1,14.8
3,Cc1nn2c(C)nc3sc4c(c3c2nc1=O)CC(C)(C)OC4,11.9
4,Cc1cccc(/C=N/NC(=O)c2ccc3c(c2)OCCO3)c1O,12
5,CNC(=O)c1ccsc1NC(=O)CN1C(=O)CCC1=O,11.2
6,COc1ccc(NC(=O)CSc2nc3ccccc3nc2N2CCOCC2)c(OC)c1,13.3
7,CC(OC(=O)c1oc2ccccc2c1CSC1CCCCC1)C(=O)NC(N)=O (stereo not drawn),9.98
8,CCOc1cccc(/C(O)=C2/C(=O)C(=O)N(CCOC)C2c2ccco2)c1 (stereo not drawn),8.52
9,O=C(CSc1nc2ccccc2[nH]1)N1CCCCC1,-1.05
10,O=C(COn1nnc2ccc(Cl)cc21)Nc1ccc(F)cc1,12.9
11,CCN(CC)/C(Sc1ccccc1)=C(\C(Cl)=C(Cl)Cl)[N+](=O)[O-],11
12,C[n+]1ccccc1/C=N/O.[Cl-],13.4
13,CC1=C(C#N)C(=O)N(C2CCS(=O)(=O)C2)C(=O)/C1=C\c1ccc(C)o1 (stereo not drawn),10.4
14,CCOc1ccccc1OCC(=O)NC1CCCCC1,-5.56
15,CSc1ncc2ncn(C3OC(CO)C(O)C3O)c2n1 (stereo not drawn),14.5
16,CCOC(=O)C1=C(C)NC(=NC)SC1c1ccccc1 (stereo not drawn),11.1
17,O=C(Nc1ccc(Cl)c([N+](=O)[O-])c1)c1ccc(NCCCN2CCOCC2)c([N+](=O)[O-])c1,-1.88
18,COc1ccc(/C=C/C(=O)NCc2ccc(F)cc2)cc1S(=O)(=O)N1CCOCC1,3.16
19,CCCCCC(=O)c1ccc(O)cc1O,13.5
20,O=C1CC(c2ccccc2)n2nc(NC(=O)C3CCCO3)nc2N1 (stereo not drawn),-3.45
21,CCOc1cc2c(cc1/C=C(/C#N)c1ccc(C(=O)O)cc1)OCO2,12.9
22,CC(C)C(=O)Nc1cccc(-c2nc3ccccc3o2)c1,8.98
